# Some of the results follow.
# Legend:
# Test in all cases: glycan array binding signal (z-score within array); higher = stronger binding
# Settings in all cases: glycan notation: IUPAC condensed, linker removed
# [1] = target: Fuc(a1-2)Gal
# Method in brief: (§1)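 The binding signal is a Z-score computed within each array. Data were drawn from 3228 arrays in the Consortium for Functional Glycomics database, restricted to those with a known protein sequence. Scores were averaged over arrays of the same protein sequence at different concentrations or buffers, and over linkers, and negative values can be taken as non-binding.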
# [2] = target: Fuc(a1-2)Gal(b1-3)GalNAc
# Method in brief: as §1
# [3] = target: Fuc(a1-2)Gal(b1-3)GalNAc(b1-3)Gal
# Method in brief: as §1
# [4] = target: Fuc(a1-2)Gal(b1-3)GalNAc(b1-3)Gal(a1-4)Gal(b1-4)Glc
# Method in brief: as §1
# [5] = target: Fuc(a1-2)Gal(b1-3)GalNAc(b1-3)Gal(b1-4)Glc
# Method in brief: as §1
# [6] = target: Fuc(a1-2)Gal(b1-3)GalNAc(b1-4)[Neu5Ac(a2-3)]Gal(b1-4)Glc
# Method in brief: as §1
# [7] = target: Fuc(a1-2)Gal(b1-3)[Fuc(a1-4)]GlcNAc
# Method in brief: as §1
# [8] = target: Fuc(a1-2)Gal(b1-4)Glc
# Method in brief: as §1
# [9] = target: Fuc(a1-2)Gal(b1-4)GlcNAc
# Method in brief: as §1
# [10] = target: Fuc(a1-2)Gal(b1-4)GlcNAc(b1-3)Gal(b1-4)GlcNAc
# Method in brief: as §1
# [11] = target: Fuc(a1-2)Gal(b1-4)GlcNAc(b1-3)Gal(b1-4)GlcNAc(b1-3)Gal(b1-4)GlcNAc
# Method in brief: as §1
# [12] = target: Fuc(a1-2)Gal(b1-4)[Fuc(a1-3)]GalNAc(b1-3)Gal(b1-4)[Fuc(a1-3)]GlcNAc
# Method in brief: as §1
# [13] = target: Fuc(a1-2)Gal(b1-4)[Fuc(a1-3)]GalNAc(b1-3)Gal(b1-4)[Fuc(a1-3)]GlcNAc(b1-3)Gal(b1-4)[Fuc(a1-3)]GalNAc
# Method in brief: as §1
# [14] = target: Fuc(a1-2)Gal(b1-4)[Fuc(a1-3)]GlcNAc
# Method in brief: as §1
# [15] = target: Fuc(a1-2)GlcNAc
# Method in brief: as §1
# [16] = target: Fuc(a1-2)[Gal(a1-3)]Gal
# Method in brief: as §1
# [17] = target: Fuc(a1-2)[Gal(a1-3)]Gal(b1-3)GlcNAc
# Method in brief: as §1
# [18] = target: Fuc(a1-2)[Gal(a1-3)]Gal(b1-4)Glc
# Method in brief: as §1
# [19] = target: Fuc(a1-2)[Gal(a1-3)]Gal(b1-4)GlcNAc
# Method in brief: as §1
# [20] = target: Fuc(a1-2)[Gal(a1-3)]Gal(b1-4)[Fuc(a1-3)]GlcNAc
# Method in brief: as §1
# [21] = target: Fuc(a1-2)[Gal(a1-4)]Gal(b1-4)GalNAc
# Method in brief: as §1
# [22] = target: Fuc(a1-2)[GalNAc(a1-3)]Gal
# Method in brief: as §1
# [23] = target: Fuc(a1-2)[GalNAc(a1-3)]Gal(b1-3)GlcNAc
# Method in brief: as §1
# [24] = target: Fuc(a1-2)[GalNAc(a1-3)]Gal(b1-4)Glc
# Method in brief: as §1
# [25] = target: Fuc(a1-2)[GalNAc(a1-3)]Gal(b1-4)GlcNAc
# Method in brief: as §1
# [26] = target: Fuc(a1-2)[GalNAc(a1-3)]Gal(b1-4)[Fuc(a1-3)]GlcNAc
# Method in brief: as §1
# [27] = target: Fuc(a1-2)[GalNAc(a1-4)]Gal(b1-4)GlcNAc
# Method in brief: as §1
# [28] = target: Fuc(a1-3)GlcNAc
# Method in brief: as §1
# [29] = target: Fuc(a1-3)[Gal(b1-4)]GlcNAc
# Method in brief: as §1
# [30] = target: Fuc(a1-3)[Gal(b1-4)]GlcNAc(b1-4)Gal(b1-4)[Fuc(a1-3)]GlcNAc
# Method in brief: as §1
# [31] = target: Fuc(a1-3)[Gal(b1-4)]GlcNAc(b1-4)Gal(b1-4)[Fuc(a1-3)]GlcNAc(b1-4)Gal(b1-4)[Fuc(a1-3)]GlcNAc
# Method in brief: as §1
# [32] = target: Fuc(a1-3)[Gal3S(b1-4)]GlcNAc
# Method in brief: as §1
# [33] = target: Fuc(a1-3)[GalNAc(b1-4)]Gal(b1-4)GlcNAc
# Method in brief: as §1
# [34] = target: Fuc(a1-4)GlcNAc
# Method in brief: as §1
# [35] = target: Fuc(b1-3)GlcNAc
# Method in brief: as §1
# [36] = target: Gal(a1-2)Gal
# Method in brief: as §1
# [37] = target: Gal(a1-3)Gal
# Method in brief: as §1
binder,measurement,setting,value
ASA (Allium sativum) (protein) KAHEKERMGRNTPSAKLMSIAAVAAILTILASTCMARNLLTNGEGLYAGQSLNVEPYHFIMQEDCNLVLYDHSTAVWATNTDIPGKKECRAVLQSDGNFVVYDADGRPLWASHSVRGNGNYVLVLQEDGNVVIYGSDIWSTGTYVKAARGPVVVAMNGTVDGGSLIRPVIVNKNHVPVIRKVGTLSRNILRNDEGLYAGQSLDVEPYHFIMHEDCNLVLYDHSTAVWASNTDIPGKKGCKAVLQSDGNFVVYDAEGRSLWASHSVRGNGNYVLVLQEDGNVVIYGSDIWSTDTYRKSARGPVIRKVGTLAGAA,glycan array binding signal (z-score),[1],-0.156
same,glycan array binding signal (z-score),[2],-0.144
same,glycan array binding signal (z-score),[3],-0.217
same,glycan array binding signal (z-score),[4],0.004
same,glycan array binding signal (z-score),[5],-0.228
same,glycan array binding signal (z-score),[6],0.262
same,glycan array binding signal (z-score),[7],-0.233
same,glycan array binding signal (z-score),[8],-0.213
same,glycan array binding signal (z-score),[9],-0.221
same,glycan array binding signal (z-score),[10],-0.217
same,glycan array binding signal (z-score),[11],-0.197
same,glycan array binding signal (z-score),[12],-0.222
same,glycan array binding signal (z-score),[13],-0.081
same,glycan array binding signal (z-score),[14],-0.206
same,glycan array binding signal (z-score),[15],-0.226
same,glycan array binding signal (z-score),[16],-0.22
same,glycan array binding signal (z-score),[17],-0.192
same,glycan array binding signal (z-score),[18],-0.206
same,glycan array binding signal (z-score),[19],-0.16
same,glycan array binding signal (z-score),[20],-0.214
same,glycan array binding signal (z-score),[21],-0.217
same,glycan array binding signal (z-score),[22],-0.223
same,glycan array binding signal (z-score),[23],-0.225
same,glycan array binding signal (z-score),[24],-0.225
same,glycan array binding signal (z-score),[25],-0.217
same,glycan array binding signal (z-score),[26],-0.206
same,glycan array binding signal (z-score),[27],-0.209
same,glycan array binding signal (z-score),[28],-0.225
same,glycan array binding signal (z-score),[29],-0.222
same,glycan array binding signal (z-score),[30],-0.185
same,glycan array binding signal (z-score),[31],-0.229
same,glycan array binding signal (z-score),[32],-0.223
same,glycan array binding signal (z-score),[33],-0.222
same,glycan array binding signal (z-score),[34],-0.238
same,glycan array binding signal (z-score),[35],-0.219
same,glycan array binding signal (z-score),[36],-0.229
same,glycan array binding signal (z-score),[37],-0.231

# From the supplement of paper PMC8728848
